Assay results: PubChem BioAssay AID360 (National Center for Advancing Translational Sciences (NCATS), 2006)
The whole screen tested about 48,000 compounds, of which about 550 (1.1%) were called active. About 4% were inconclusive and are not listed. Cut-off read from the data, not from the text of the source: active = potency below about 15 µM; inconclusive = mostly about 16 µM to 33 µM; inactive = weaker than that. The list shows a part of the results.

molecular target: Lysosomal acid glucosylceramidase (Homo sapiens) (UniProt P04062); experiment: Glucocerebrosidase; conditions: purified enzyme, resorufin glucoside fluorescence (screen aimed at inhibitors), 20 min;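 note: the screen sought inhibitors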
Procedure, shortened: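 Wild-type enzyme at 0.2 nM final in 50mM citric acid/KH2PO4, 10mM sodium taurocholate, 0.01% tween-20, pH 5.9, with resorufin beta-D-glucopyranoside at 30 uM final. Compounds titrated, 20 min at RT, red fluorescence read; AC50 from titration.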
Potency is the fitted concentration of half-maximal effect.

UniProt P04062, sequence (P04062 whole entry, looked up): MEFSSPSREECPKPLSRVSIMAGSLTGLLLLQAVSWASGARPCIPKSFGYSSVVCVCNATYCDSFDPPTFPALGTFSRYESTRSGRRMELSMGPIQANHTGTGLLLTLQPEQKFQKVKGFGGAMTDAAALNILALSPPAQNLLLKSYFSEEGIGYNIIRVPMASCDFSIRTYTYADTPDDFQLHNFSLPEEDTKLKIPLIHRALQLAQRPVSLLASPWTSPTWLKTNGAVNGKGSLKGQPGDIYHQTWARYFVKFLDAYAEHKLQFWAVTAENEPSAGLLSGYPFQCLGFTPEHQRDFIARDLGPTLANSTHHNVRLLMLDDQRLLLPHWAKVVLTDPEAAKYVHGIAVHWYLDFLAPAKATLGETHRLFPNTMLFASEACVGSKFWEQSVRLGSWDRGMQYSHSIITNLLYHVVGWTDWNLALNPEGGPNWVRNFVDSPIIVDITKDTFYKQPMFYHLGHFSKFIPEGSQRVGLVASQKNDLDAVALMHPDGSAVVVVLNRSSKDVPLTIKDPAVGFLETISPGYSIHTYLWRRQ

Potency, inactive:
OCC1(c2cc(C(F)(F)F)n[nH]2)CCCCC1 > 76.9 µM
CCOC(=O)c1c(C)[nH]c(C(=O)OCc2c(C)noc2C)c1C > 76.9 µM
CC(C)COc1ccc(-c2nnn(CC(=O)N3CCCC3)n2)cc1 > 76.9 µM
COc1ccc(N2CCN(c3nc(NCCO)nc(N4CCOCC4)n3)CC2)cc1 > 76.9 µM
Cc1ccc(C(=O)CSc2nnc(-c3ccco3)n2CC2CCCO2)cc1 (stereo not drawn) > 76.9 µM
O=C(CN(C(=O)CCC(=O)Nc1ccccn1)c1ccc2c(c1)OCO2)NCc1ccco1 > 76.9 µM
O=C(CCc1nc(-c2ccccc2F)no1)NCCN1CCN(Cc2ccccc2)CC1 > 76.9 µM
COc1ccc(Cn2nnc(C(=O)Nc3ccc(F)cc3)c2N)cc1 > 76.9 µM
O=C(c1ccc(Br)s1)N1CCN(Cc2ccc3c(c2)OCO3)CC1 > 76.9 µM
COC(=O)c1[nH]c2cccc(OC)c2c1NC(=O)CN1CCN(c2cccc(OC)c2)C(C)C1 (stereo not drawn) > 76.9 µM
CCCCC(=O)Nc1ccc2c(c1)nc1n2CCOC1
COC(=O)c1ccc(CSc2nc3ccccc3s2)o1 > 76.9 µM
NC(=O)c1ccsc1NC(=O)COC(=O)Cc1ccsc1 > 76.9 µM
CC1CN(C(=O)c2cc3c(=O)n4ccccc4nc3s2)CC(C)O1 (stereo not drawn) > 76.9 µM
COc1ccc(C2C=C(C)Nc3nc(SC)nn32)cc1 (stereo not drawn) > 76.9 µM
C#CC1(O)CC(C)NCC1(C)CCC#N (stereo not drawn) > 76.9 µM
O=C(NCc1cccs1)NC1CCCCC1 > 76.9 µM
COc1ccc(F)cc1S(=O)(=O)N1CCC(C(N)=O)CC1 > 76.9 µM
O=C(O)C1CC=CCC1C(=O)N1CCCC1 (stereo not drawn) > 76.9 µM
CN(C)CCCNC(CC(=O)Nc1ccc(Cl)cc1)C(=O)O (stereo not drawn) > 76.9 µM
CC(C)Oc1ccccc1C1CC(=O)Nc2cc3c(cc21)OCO3 (stereo not drawn) > 76.9 µM
Cc1noc(C)c1COC(=O)CCc1nc2ccccc2c(=O)[nH]1 > 76.9 µM
O=C(Nc1ccc(S(=O)(=O)N2CCCCC2)cc1)c1cnccn1 > 76.9 µM
Cc1ccc2[nH]c(=O)c(COC(=O)C3CCCO3)cc2c1 (stereo not drawn) > 76.9 µM
CCOC(=O)C1=C(C)NC(=O)C(C(N)=O)C12CCCCC2 (stereo not drawn) > 76.9 µM
CC(C)CNC(=O)C1CCCN(S(=O)(=O)c2ccc(-n3cnnn3)cc2)C1 (stereo not drawn) > 76.9 µM
Cc1noc(NS(=O)(=O)c2ccc(NC(=O)Nc3ccc(Cl)c(Cl)c3)cc2)c1C > 76.9 µM
CCOC(=O)c1c(NC(=O)c2ccn(CC)n2)sc2c1CCCC2
Cc1c(C(=O)N2CC(C)OC(C)C2)sc2nc(-c3ccc(F)cc3)cn12 (stereo not drawn) > 76.9 µM
COc1ccc(OC)c(C(O)c2nc3ccccc3n2C(C)C)c1 (stereo not drawn) > 76.9 µM
O=C(c1cccc2ccccc12)N1CCN(CC2CC=CCC2)CC1 (stereo not drawn) > 76.9 µM
O=C1c2oc3ccccc3c(=O)c2C(c2cccnc2)N1CCCN1CCOCC1 (stereo not drawn) > 76.9 µM
Cn1c(SCC(=O)NCCc2ccccc2)nnc1-c1ccncc1 > 76.9 µM
Cc1cc2n(n1)C(c1c[nH]c3ccccc13)Nc1ccccc1-2 (stereo not drawn) > 76.9 µM
Cc1ccc(OCc2nnc(SCC(=O)c3ccccc3)n2Cc2ccco2)cc1 > 76.9 µM
Cc1nc2ncnn2c(C)c1CCC(=O)Oc1ccccc1 > 76.9 µM
COC(=O)Cn1c2ccccc2c2nc(C)sc21 > 76.9 µM
Cc1ccnc(NC(=O)CCC(=O)N(CC(=O)NCCc2ccccc2)Cc2ccco2)c1 > 76.9 µM
CCOC(=O)C1CCN(CC(O)COc2ccc(C(C)(C)CC)cc2)CC1 (stereo not drawn) > 76.9 µM
CCCC(=O)n1nc(-c2ccc(Cl)cc2)nc1SC > 76.9 µM
O=C(C1CCN(C2CC(=O)N(c3cccc(Cl)c3)C2=O)CC1)N1CCCC1 (stereo not drawn) > 76.9 µM
CCCC(=O)NC(Nc1ccc(S(=O)(=O)Nc2cc(C)on2)cc1)(C(=O)OCC)C(F)(F)F (stereo not drawn) > 76.9 µM
Oc1ccc(CN2CCCCC2)nc1-c1ccccc1 > 76.9 µM
CCN(CC(=O)NCCc1ccc(S(N)(=O)=O)cc1)Cc1nc2ccccc2c(=O)[nH]1 > 76.9 µM
Cc1ccc(-c2nn3c(C)nnc3s2)cc1NCc1c(F)cccc1Cl > 76.9 µM
CCOC(=O)C1CCN(C(=O)CSCCSCC(=O)N2CCC(C(=O)OCC)CC2)CC1 > 76.9 µM
Cc1ccn2cc(C(=O)Nc3ccc4c(c3)OCCO4)nc2c1 > 76.9 µM
O=c1cc(N2CCc3ccccc3C2)[nH]c(=O)n1-c1ccc(Br)cc1 > 76.9 µM
CC(=O)Nc1cc(C(F)(F)F)ccc1N1CCOCC1 > 76.9 µM
O=C(COC(=O)c1ccccc1)NCC1CCCO1 (stereo not drawn) > 76.9 µM
CCOc1ccccc1NC(=O)CSc1nnc(-c2cnccn2)n1C > 76.9 µM
COc1ccccc1CNC(=O)CCS(=O)(=O)c1cccs1 > 76.9 µM
COc1ccc(NC(=O)Cn2nc(C(F)(F)F)c3c2CCCC3)c(OC)c1 > 76.9 µM
COc1ccc(C2C(C(=O)N3CCOCC3)=C(C)NC3=C2C(=O)CC(C)(C)C3)cc1O (stereo not drawn) > 76.9 µM
CCOC(=O)C1CCN(C(=O)CSc2cc(=O)n(CC)c3ccccc23)CC1 > 76.9 µM
O=C(c1cc2cc(Br)ccc2oc1=O)N1CCN(c2ccccn2)CC1 > 76.9 µM
C=CCn1cc(C(=O)NCCOC)c(=O)c2cc(S(=O)(=O)N(CC)CC)ccc21 > 76.9 µM
COc1ccc2cc(CCNC(=O)CC(C)(C)C)c(=O)[nH]c2c1 > 76.9 µM
